{
  "source": "the supplement of paper PMC9446081",
  "note": "The campaign covered roughly 39,000 compounds. About 220 (0.56%) showed activity. The list shows a part of the results.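 Note: static incubation at 37 °C against the wild-type strain, values averaged over two biological replicates.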",
  "data": [
    {"tested_on": "Escherichia coli K-12 BW25113", "experiment": "relative growth (OD600 normalised to plate interquartile mean) (fraction); higher = less growth inhibition, active = 0.2 or less", "conditions": "50 µM; LB; incubation time: overnight (16-24 h)", "values": [
      {"smiles": "C[C@@H]1CN([C@H](C)CO)C(=O)c2cc(NC(=O)Nc3ccc4c(c3)OCO4)ccc2O[C@@H]1CN(C)S(C)(=O)=O", "relative growth": "inactive: 0.994"},
      {"smiles": "Cc1ncsc1-c1ccc(CNC(=O)[C@@H]2C[C@@H](O)CN2C(=O)[C@H](C(C)C)N2Cc3ccccc3C2=O)cc1", "relative growth": "inactive: 1.02"},
      {"smiles": "O=C(C[C@@H]1CC[C@H](NC(=O)c2cccnc2)[C@H](CO)O1)NCCN1CCCCC1", "relative growth": "inactive: 0.985"},
      {"smiles": "Cc1noc(C)c1S(=O)(=O)N(C)C[C@H]1OCCCC[C@H](C)Oc2ccc(NC(=O)Nc3cccc4ccccc34)cc2C(=O)N([C@H](C)CO)C[C@@H]1C", "relative growth": "inactive: 1.01"},
      {"smiles": "Cc1ccc(S(=O)(=O)N(C)C[C@@H]2Oc3c(NS(=O)(=O)c4ccccc4)cccc3C(=O)N([C@H](C)CO)C[C@H]2C)cc1", "relative growth": "inactive: 0.996"},
      {"smiles": "C[C@H]1CN([C@@H](C)CO)C(=O)c2cc(NC(=O)Nc3ccccc3)ccc2O[C@H]1CN(C)S(C)(=O)=O", "relative growth": "inactive: 0.99"},
      {"smiles": "C[C@@H]1CN([C@H](C)CO)C(=O)c2c(c3ccccc3n2C)-c2ccccc2CO[C@@H]1CN(C)C(=O)Nc1ccccc1", "relative growth": "inactive: 1.02"},
      {"smiles": "C[C@@H]1CN([C@@H](C)CO)C(=O)CCCn2cc(nn2)CO[C@H]1CN(C)S(=O)(=O)c1cccc(C#N)c1", "relative growth": "inactive: 1.01"},
      {"smiles": "COc1ccc(S(=O)(=O)N(C)C[C@H]2OCCCC[C@H](C)Oc3ccc(NC(=O)Nc4ccc5c(c4)OCO5)cc3C(=O)N([C@H](C)CO)C[C@@H]2C)cc1", "relative growth": "inactive: 1.03"},
      {"smiles": "Cc1noc(C)c1S(=O)(=O)N(C)C[C@H]1Oc2ccc(NC(=O)Nc3ccc4c(c3)OCO4)cc2CC(=O)N([C@H](C)CO)C[C@H]1C", "relative growth": "inactive: 1.01"},
      {"smiles": "O=C(C[C@H]1CC[C@@H]2[C@H](COC[C@H](O)CN2C(=O)c2ccccc2)O1)N1CCOCC1", "relative growth": "inactive: 0.984"},
      {"smiles": "CC(C)NC(=O)N(C)C[C@@H]1Oc2cc(-c3ccccc3F)ccc2S(=O)(=O)N([C@H](C)CO)C[C@@H]1C", "relative growth": "inactive: 1.02"},
      {"smiles": "O=C1N[C@@H](Cc2c[nH]c3ccccc23)COC(=O)[C@H](Cc2ccc(F)cc2)CCC=CC[C@@H]1CC(=O)N(CCO)Cc1ccccc1", "relative growth": "inactive: 1.01"},
      {"smiles": "C[C@@H]1CN([C@H](C)CO)C(=O)c2c(c3ccccc3n2C)-c2ccccc2CO[C@H]1CN(C)C(=O)Nc1ccc(F)cc1", "relative growth": "inactive: 1.03"},
      {"smiles": "CCOc1nc2c(ncn2C)c(=O)n1C", "relative growth": "inactive: 0.938"},
      {"smiles": "C[C@H]1CN([C@@H](C)CO)C(=O)Cc2cc(NS(=O)(=O)c3cn(C)cn3)ccc2O[C@@H]1CN(C)S(C)(=O)=O", "relative growth": "inactive: 1.02"},
      {"smiles": "C[C@H](CO)N1C[C@H](C)[C@H](CN(C)Cc2ccc(C(=O)Nc3ccccc3N)cc2)OCCCC[C@H](C)Oc2ccc(NC(=O)C3CCCCC3)cc2C1=O", "relative growth": "inactive: 1.01"},
      {"smiles": "COc1ccc(CNCC(=O)O)cc1", "relative growth": "inactive: 1.03"},
      {"smiles": "CCOC(=O)c1c(C)c(Cl)c(O)c(Cl)c1O", "relative growth": "inactive: 1.01"},
      {"smiles": "O=C(C1=C[C@H](c2csc3ccccc23)C[C@H](OCc2ccc(CO)cc2)O1)N1CCN(Cc2ccc3c(c2)OCO3)CC1", "relative growth": "inactive: 1.02"},
      {"smiles": "Cc1ccc(S(=O)(=O)N(C)C[C@H]2OCCCC[C@@H](C)Oc3ccc(NS(=O)(=O)c4ccc(F)cc4)cc3C(=O)N([C@@H](C)CO)C[C@H]2C)cc1", "relative growth": "inactive: 1.01"},
      {"smiles": "CN1CCN(C(=O)CNS(=O)(=O)c2ccccc2)CC1", "relative growth": "inactive: 0.998"},
      {"smiles": "Cc1noc(C)c1S(=O)(=O)N(C)C[C@@H]1Oc2ccc(NS(=O)(=O)c3cccs3)cc2C(=O)N([C@H](C)CO)C[C@@H]1C", "relative growth": "inactive: 0.962"},
      {"smiles": "Cc1noc(C)c1S(=O)(=O)Nc1ccc2c(c1)C(=O)N([C@@H](C)CO)C[C@H](C)[C@@H](CN(C)Cc1ccc(Oc3ccccc3)cc1)O2", "relative growth": "inactive: 0.989"},
      {"smiles": "COc1ccc(cc1)CN1C[C@]2(CN(C2)C(=O)Cc2ccncc2)c2c([nH]c3cc(ccc23)OC)[C@@H]1CO", "relative growth": "inactive: 0.992"},
      {"smiles": "C[C@@H]1CN([C@@H](C)CO)C(=O)c2cc(NC(=O)Nc3ccc(C(F)(F)F)cc3)ccc2O[C@H]1CN(C)S(=O)(=O)c1ccc(F)cc1", "relative growth": "inactive: 1"},
      {"smiles": "NC(=O)N1CCC(CC(=O)N2CCC([C@H]3c4ncc(Br)cc4CCc4cc(Cl)cc(Br)c43)CC2)CC1", "relative growth": "inactive: 1.02"},
      {"smiles": "C[C@H](CO)N1C[C@H](C)[C@@H](CN(C)Cc2ccc3c(c2)OCO3)OCCCC[C@H](C)Oc2ccc(NC(=O)Nc3ccc(C(F)(F)F)cc3)cc2C1=O", "relative growth": "inactive: 1.01"},
      {"smiles": "C[C@@H]1CN([C@H](C)CO)C(=O)CCCn2cc(nn2)CO[C@@H]1CN(C)C(=O)C1CC1", "relative growth": "inactive: 0.97"},
      {"smiles": "Cc1noc(C)c1NC(=O)Nc1ccc2c(c1)C(=O)N([C@H](C)CO)C[C@@H](C)[C@H](CN(C)C(=O)Nc1c(C)noc1C)OCCCC[C@@H](C)O2", "relative growth": "inactive: 1.01"},
      {"smiles": "Cc1ccc(S(=O)(=O)N(C)C[C@H]2OCCCC[C@@H](C)Oc3ccc(NS(=O)(=O)c4ccc(F)cc4)cc3C(=O)N([C@H](C)CO)C[C@@H]2C)cc1", "relative growth": "inactive: 1.01"},
      {"smiles": "O=C(c1cnc2ccccc2c1)C1CC1", "relative growth": "inactive: 1.01"},
      {"smiles": "C[C@H]1CCCCO[C@@H](CN(C)C(=O)Nc2ccccc2)[C@@H](C)CN([C@@H](C)CO)C(=O)c2cc(NS(=O)(=O)c3ccc(F)cc3)ccc2O1", "relative growth": "inactive: 1.02"},
      {"smiles": "C[C@@H]1CN([C@H](C)CO)C(=O)c2cc(NC(=O)C3CCCCC3)ccc2O[C@@H](C)CCCCO[C@@H]1CN(C)Cc1ccncc1", "relative growth": "inactive: 0.997"},
      {"smiles": "Cc1noc(C)c1NC(=O)Nc1ccc2c(c1)C(=O)N([C@@H](C)CO)C[C@@H](C)[C@H](CN(C)S(=O)(=O)c1ccc(Cl)cc1)OCCCC[C@@H](C)O2", "relative growth": "inactive: 1.02"},
      {"smiles": "C=CC(=O)Nc1cccc([C@@H](CCc2ccc(OC)c(OC)c2)OC(=O)[C@@H]2CCCCN2C(=O)C(=O)C(C)(C)CC)c1", "relative growth": "inactive: 1.02"},
      {"smiles": "COc1cccc(-c2ccc3c(c2)O[C@H](CN(C)C(=O)C2CCC2)[C@@H](C)CN([C@@H](C)CO)S3(=O)=O)c1", "relative growth": "inactive: 1.02"},
      {"smiles": "CCOC(=O)c1cc2c(c(-c3ccccc3)n1)[C@@H](CCO[Si](C)(C)C(C)(C)C)N([S@](=O)C(C)(C)C)C2", "relative growth": "inactive: 1.02"},
      {"smiles": "CCOC(=O)CCCCCC(=O)Nc1ccc2c(c1)C(=O)N([C@@H](C)CO)C[C@@H](C)[C@H](CN(C)S(=O)(=O)c1cccs1)OCCCC[C@H](C)O2", "relative growth": "inactive: 0.991"},
      {"smiles": "Cc1ccc(S(=O)(=O)Nc2ccc3c(c2)C(=O)N([C@H](C)CO)C[C@@H](C)[C@H](CN(C)S(=O)(=O)c2ccc(Cl)cc2)OCCCC[C@H](C)O3)cc1", "relative growth": "inactive: 1.05"},
      {"smiles": "COc1ccccc1CNC(=O)C[C@@H]1C[C@@H]2c3cc(NC(=O)NC4CCCC4)ccc3O[C@@H]2[C@H](CO)O1", "relative growth": "inactive: 0.983"},
      {"smiles": "CC1(C)OC(=O)N(CCCC(=O)O)[C@@]1(C)O", "relative growth": "inactive: 1.02"},
      {"smiles": "CC[C@@H](O[Si](C#C[Si](C(C)C)(C(C)C)C(C)C)(C(C)C)C(C)C)c1cn([C@H](C)c2ccccc2)nn1", "relative growth": "inactive: 0.964"},
      {"smiles": "C[C@H]1CN([C@@H](C)CO)C(=O)c2cccc(NS(=O)(=O)c3ccc(F)cc3)c2O[C@H]1CN(C)S(=O)(=O)c1cccs1", "relative growth": "inactive: 0.97"},
      {"smiles": "C[C@@H]1CN([C@@H](C)CO)C(=O)c2cc(NS(=O)(=O)c3ccc(F)cc3)ccc2O[C@@H](C)CCCCO[C@@H]1CN(C)Cc1ccc(C(=O)O)cc1", "relative growth": "inactive: 0.973"},
      {"smiles": "C[C@H]1CN([C@@H](C)CO)C(=O)c2cc(NC(=O)Nc3ccc(C(F)(F)F)cc3)ccc2O[C@@H]1CN(C)C(=O)NC1CCCCC1", "relative growth": "inactive: 1.01"},
      {"smiles": "C[C@H]1CCCCO[C@H](CN(C)C(=O)Nc2cccc3ccccc23)[C@@H](C)CN([C@@H](C)CO)C(=O)c2cc(NC(=O)Nc3ccccc3)ccc2O1", "relative growth": "inactive: 1.01"},
      {"smiles": "O=C(O)c1ccc2nncn2c1", "relative growth": "inactive: 0.984"},
      {"smiles": "O=c1[nH]c(=O)n(C2CC(O)C(CO)O2)cc1C=CBr", "note": "(stereo not given)", "relative growth": "inactive: 0.919"},
      {"smiles": "C[C@@H]1CN([C@@H](C)CO)C(=O)Cc2cc(NS(=O)(=O)c3ccc(F)cc3)ccc2O[C@@H]1CN(C)Cc1ccc(Oc2ccccc2)cc1", "relative growth": "inactive: 0.989"},
      {"smiles": "CCc1nccn1CC(=O)N[C@H]1C[C@@H](C(=O)OC)N(C)C1", "relative growth": "inactive: 1.02"},
      {"smiles": "C[C@@H]1CN([C@H](C)CO)S(=O)(=O)c2ccc(-c3cncnc3)cc2O[C@H]1CN(C)C(=O)C1CCCCC1", "relative growth": "inactive: 1"},
      {"smiles": "COC[C@H]1CN(C(=O)c2cscn2)N1C", "relative growth": "inactive: 0.895"},
      {"smiles": "C[C@@H]1CCCCO[C@H](CN(C)C(=O)Nc2cccc3ccccc23)[C@@H](C)CN([C@H](C)CO)C(=O)c2cc(NS(=O)(=O)c3cccs3)ccc2O1", "relative growth": "inactive: 1.01"},
      {"smiles": "COc1ccc(S(=O)(=O)N(C)C[C@H]2Oc3ccc(NC(=O)CCCN(C)C)cc3C(=O)N([C@H](C)CO)C[C@H]2C)cc1", "relative growth": "inactive: 0.995"},
      {"smiles": "C[C@@H]1CN([C@@H](C)CO)C(=O)c2cc(NC(=O)CCCCCC(=O)Nc3ccccc3N)ccc2O[C@H]1CN(C)Cc1ccc(C(F)(F)F)cc1", "relative growth": "inactive: 0.974"},
      {"smiles": "C[C@@H]1CN([C@@H](C)CO)C(=O)c2cc(NC(=O)Cc3ccccc3)ccc2O[C@@H]1CN(C)S(C)(=O)=O", "relative growth": "inactive: 0.969"},
      {"smiles": "CC1(C)OC2COC3(COS(N)(=O)=O)OC(C)(C)OC3C2O1", "note": "(stereo not given)", "relative growth": "inactive: 0.85"},
      {"smiles": "COc1cccc(S(=O)(=O)N(C)C[C@@H]2OCc3cn(nn3)CCCC(=O)N([C@@H](C)CO)C[C@@H]2C)c1", "relative growth": "inactive: 0.968"},
      {"smiles": "CCS(=O)(=O)Nc1ccc2c(c1)C(=O)N(C)C[C@H](OC)[C@@H](C)CN(Cc1ccccn1)[C@@H](C)CO2", "relative growth": "inactive: 1.01"}
    ]}
  ]
}
